Laboratory results reported in the BET-seq Pho4 binding data (Le et al. 2018).
The other results are listed elsewhere or left out. Values were computed here from the reads of four pooled replicates and scatter widely.

target: T1, Pho4 (S. cerevisiae) (UniProt P07270); experiment: relative binding free energy (BET-seq); higher = weaker binding; details: reference: library average
T1 sequence: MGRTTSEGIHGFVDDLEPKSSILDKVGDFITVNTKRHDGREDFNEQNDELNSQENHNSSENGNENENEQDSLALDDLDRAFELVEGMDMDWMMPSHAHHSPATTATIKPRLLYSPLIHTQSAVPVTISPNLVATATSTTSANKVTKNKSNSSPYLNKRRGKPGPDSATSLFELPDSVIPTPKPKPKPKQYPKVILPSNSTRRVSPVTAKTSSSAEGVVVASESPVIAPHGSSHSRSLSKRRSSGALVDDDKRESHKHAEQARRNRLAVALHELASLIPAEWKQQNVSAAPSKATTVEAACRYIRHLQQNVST

Relative binding free energy, 0.17 kcal/mol:
TTTCACACGTGCGTAT, TTTGACACGTGAGGGA, TGAGACACGTGAGATG

Relative binding free energy, -0.29 kcal/mol:
TGCGGCACGTGCATGG

Relative binding free energy, 0.13 kcal/mol:
AGGTACACGTGTGAGG, TTACTCACGTGGGGTC, AGGGTCACGTGTTGAC

Relative binding free energy, 0.45 kcal/mol:
TCCTTCACGTGAGGGG

Relative binding free energy, -0.25 kcal/mol:
GGTGACACGTGGCAGG

Relative binding free energy, -0.13 kcal/mol:
GATGGCACGTGGTGGT, TATCGCACGTGCGTGG

Relative binding free energy, 0.27 kcal/mol:
AAGCTCACGTGGTAGT, TTTTTCACGTGGAAAA, TGGTACACGTGAGCGA

Relative binding free energy, 0.19 kcal/mol:
TAGGTCACGTGTGAGG, CATGACACGTGAGTGT, AGTCCCACGTGAGGGG

Relative binding free energy, 0.11 kcal/mol:
AAAAGCACGTGTGTTT

Relative binding free energy, 0.31 kcal/mol:
AGGTTCACGTGATCGG, ATACTCACGTGAGTGG, GGATGCACGTGAGGGG, AGTCTCACGTGAGGCT

Relative binding free energy, -0.03 kcal/mol:
TTTGACACGTGGTGGA, GTAGCCACGTGCGGTG, GAAAACACGTGTGGGG, TGAGGCACGTGTCTTT

Relative binding free energy, 0.09 kcal/mol:
TGCTTCACGTGTGTTA, TTGTGCACGTGTGTCT, AGGGACACGTGGTATT, GAGTACACGTGGGTAT, ATGGTCACGTGTCATT

Relative binding free energy, 0.21 kcal/mol:
TCATTCACGTGCGGTT, AAGGTCACGTGGAAGG

Relative binding free energy, 0.12 kcal/mol:
AAGCTCACGTGGGTGT, GGGGTCACGTGCAATG, GTTTGCACGTGTAGCT, TATTTCACGTGGCGGA, TGAAGCACGTGATGGT, TTTTACACGTGTTTAG, AGTAACACGTGGATAT, CAGTTCACGTGGTTTG, CACTTCACGTGGGGGT, TGGAACACGTGATAGG, TGTCACACGTGTGGTC

Relative binding free energy, -0.09 kcal/mol:
TTGTGCACGTGGCGTA, GGTGCCACGTGTGTAG, CGGCGCACGTGTGGGT, CAAAGCACGTGTTGGG

Relative binding free energy, -0.14 kcal/mol:
AACGACACGTGGGTGG

Relative binding free energy, 0.06 kcal/mol:
TGTATCACGTGCTGTC, TTCGGCACGTGGAAGT, GTATGCACGTGATATG, TTTAACACGTGACTTG, GTTTGCACGTGTGACG, TAGTGCACGTGTTGGA, GGCGGCACGTGTTTAT, GTTGACACGTGTGTTC, CGTGGCACGTGAGTGA

Relative binding free energy, -0.11 kcal/mol:
GTGAGCACGTGGCTTT, CTGGGCACGTGTTGAT

Relative binding free energy, -0.06 kcal/mol:
CGAGGCACGTGATAGT, ATGCTCACGTGGGGCG, GGCAGCACGTGTAGGA, TCGTGCACGTGGATGA

Relative binding free energy, 0.3 kcal/mol:
GGGTACACGTGAGTGC, AGAAACACGTGACGGG, GGAGTCACGTGGAGTC

Relative binding free energy, -0.19 kcal/mol:
AGATGCACGTGCAGGT, TTAGGCACGTGGTCGT

Relative binding free energy, -0.15 kcal/mol:
AGAGGCACGTGCTGTT, TGTGGCACGTGATAGC, TTCTGCACGTGGGTTC

Relative binding free energy, -0.22 kcal/mol:
ATTGCCACGTGGGCGG, TTTGCCACGTGGGTTA, GGAAGCACGTGGGGCT

Relative binding free energy, -0.08 kcal/mol:
CGTTACACGTGGGGGT

Relative binding free energy, -0.04 kcal/mol:
GCAAACACGTGGTGGG, GAGGGCACGTGTGTTA, GTAAGCACGTGTGAGG, GGGTACACGTGGTTAT, TAGGGCACGTGATTGT

Relative binding free energy, 0.08 kcal/mol:
AATATCACGTGTGTGT, GTGGTCACGTGGCGGC, ATGGTCACGTGTCTTG, GGGTACACGTGCGAGG

Relative binding free energy, 0.44 kcal/mol:
TGTATCACGTGAGGAC

Relative binding free energy, 0.16 kcal/mol:
TGTATCACGTGAGAGA, ATGATCACGTGATGTG, GTGTGCACGTGAGATG, TTATTCACGTGGTGCT

Relative binding free energy, 0.28 kcal/mol:
CGTTTCACGTGGCGCG, AATTCCACGTGAGTGG, TGGGTCACGTGACTTG

Relative binding free energy, 0.1 kcal/mol:
TTGCCCACGTGAGTGT, TATAGCACGTGTGAAG, ATGGTCACGTGCATTT, TGGGACACGTGGAGAC, TTGGTCACGTGGTCCT

Relative binding free energy, 0.34 kcal/mol:
GGGCTCACGTGTGGAT

Relative binding free energy, 0.04 kcal/mol:
TTAGTCACGTGGTTGC

Relative binding free energy, -0.1 kcal/mol:
TGGCGCACGTGCATTG, ATTGACACGTGGTCAG, TTGATCACGTGGGCGG, GGGCACACGTGGGGTA

Relative binding free energy, 0.05 kcal/mol:
TATTTCACGTGGGACT, TATGGCACGTGAAATG, TGGGTCACGTGCTTGT, ATGTCCACGTGCGGTA, TTTCACACGTGTGGTT, GGATACACGTGGTTAT, TGGGGCACGTGGAATC, ATTAACACGTGTTGTG, ATGGCCACGTGATGTG

Relative binding free energy, -0.02 kcal/mol:
CGTTACACGTGGTATG, GGGGGCACGTGCTGGC, TTAGTCACGTGGTGCG, CTTAGCACGTGGAGTT, GTCGGCACGTGTGAAG

Relative binding free energy, -0.18 kcal/mol:
TTGCGCACGTGGGAGT

Relative binding free energy, 0.38 kcal/mol:
GCGTTCACGTGTAAGG

Relative binding free energy, 0.57 kcal/mol:
GTCATCACGTGAGATT

Relative binding free energy, -0.23 kcal/mol:
CGGTGCACGTGGTCTG, ATTTGCACGTGGGCTA

Relative binding free energy, 0.43 kcal/mol:
GTTTTCACGTGAAAGG, TTTTCCACGTGAAATT

Relative binding free energy, 0.4 kcal/mol:
GGAGTCACGTGTTTAT, TAAGTCACGTGAAGGG

Relative binding free energy, -0.2 kcal/mol:
TGACGCACGTGTAGGG, TTTAGCACGTGGGGTA, CAGGGCACGTGGTGAT

Relative binding free energy, 0.02 kcal/mol:
AATTGCACGTGTTCGG, ATTAGCACGTGTAATG, GGTCGCACGTGGTTGG, GGGCACACGTGGGTGG, TTGGACACGTGGTTGC, GGTTACACGTGGTATT

Relative binding free energy, 0.01 kcal/mol:
ATAAGCACGTGTGTAA, TTAGACACGTGCATGT, TATGGCACGTGGAAGT, ACTTGCACGTGTCGGT, AAGTCCACGTGTGTGG, GTTAACACGTGGGATT, TCTGTCACGTGGAGTG

Relative binding free energy, -0.05 kcal/mol:
TGAAACACGTGGGTCG, ATAAGCACGTGTAAGT, GATCGCACGTGGGGCG, TTGCACACGTGGGGCT, TCGGGCACGTGTTTGT, CTTTACACGTGGGTAT

Relative binding free energy, 0.23 kcal/mol:
GTGTTCACGTGCTGAG, TGTGACACGTGACTGA, GTTATCACGTGGTAGT, GTCATCACGTGGTGGA, GTGTTCACGTGTAATC, ATAATCACGTGATTTG

Relative binding free energy, 0.41 kcal/mol:
TGTATCACGTGAGCTG

Relative binding free energy, 0.22 kcal/mol:
CACTTCACGTGTTTGT, GAAGGCACGTGAGAGG

Relative binding free energy, 0.2 kcal/mol:
CTTGTCACGTGTGGAC

Relative binding free energy, -0.24 kcal/mol:
GCGGGCACGTGCGTGT, ACGAGCACGTGGGCGG, TTAGGCACGTGGCGTC

Relative binding free energy, 0.18 kcal/mol:
GTTCACACGTGTCTGT, GGCGACACGTGTTTAT, GGTGTCACGTGGTTCA, AATGGCACGTGAGTGC, AGATTCACGTGTTGTA

Relative binding free energy, 0 kcal/mol:
CGAGTCACGTGGGTTG, TAGGGCACGTGCGAAT, CGGGACACGTGGAGGT, TGGTGCACGTGGGAAT, TGGAACACGTGTCTTG

Relative binding free energy, -0.07 kcal/mol:
AAGTGCACGTGCGGTG, GGATGCACGTGGTGCC, TGTGGCACGTGCTTTT, TGTATCACGTGGGTTG

Relative binding free energy, 0.03 kcal/mol:
TAGGACACGTGGTTAT, GTGTCCACGTGCGGGT, AGGTGCACGTGTGTAC, GGGTGCACGTGTATGG, TATTGCACGTGTATTT, TTAGTCACGTGTTCTA, CTGGTCACGTGGTGGC, CAGGTCACGTGTGTGC

Relative binding free energy, 0.07 kcal/mol:
TTTTACACGTGCGTGA, CTGTGCACGTGTCTGG, TGGGTCACGTGGCTAT, GGGTGCACGTGACGAG, CAGATCACGTGGAGGG, GGTGCCACGTGTTTAA

Relative binding free energy, 0.15 kcal/mol:
CGGGTCACGTGGTCTG, GCGGTCACGTGGCGCG, ATGTTCACGTGGTCAA, GGTGGCACGTGAGGCG, TGGAGCACGTGATAGA, GAGGGCACGTGAGTGC, GTTTGCACGTGTTCGT

Relative binding free energy, 0.25 kcal/mol:
GAAATCACGTGTGTGT, TGTATCACGTGTCGTT, GGGGTCACGTGGAGTT

Relative binding free energy, -0.17 kcal/mol:
AGCAGCACGTGGTTGA

Relative binding free energy, -0.01 kcal/mol:
TTAGACACGTGGTCGG, TGTTGCACGTGTGTTC, ATTTCCACGTGTAGGG, AGCGGCACGTGATCGG, TGCGTCACGTGGGAGG, ATGACCACGTGGTTTA

Relative binding free energy, 0.14 kcal/mol:
AGGATCACGTGGAAGG, TGTTGCACGTGAGGGC, TGAGTCACGTGGGACG, CTCGTCACGTGAGGTT

Relative binding free energy, 0.32 kcal/mol:
TTATTCACGTGCCTGT, TGTTTCACGTGATAGA, GAGTTCACGTGGTCGT

Relative binding free energy, -0.21 kcal/mol:
GTCTCCACGTGGGTGG, ATAAACACGTGGTGTG, CTAAGCACGTGGAGGG

Relative binding free energy, 0.29 kcal/mol:
GGTTACACGTGAGACG, TTATGCACGTGAGTAG

Relative binding free energy, 0.24 kcal/mol:
AGAGGCACGTGAGTAA, TGAATCACGTGATGGT, TGCGTCACGTGTGAGA, TCAAGCACGTGAGGGT, TTGTTCACGTGGACCG, GTTATCACGTGTCCGT

Relative binding free energy, 0.26 kcal/mol:
GGCTTCACGTGTATGA, TAGTGCACGTGAGGTC, AAGCTCACGTGGTTTT, CTGGACACGTGTTTTT

Relative binding free energy, 0.36 kcal/mol:
ACTTTCACGTGAAGTG
